# Data: PubChem BioAssay AID720708 (National Center for Advancing Translational Sciences (NCATS), 2013)
# In all, about 360,000 compounds went through this assay and about 660 (0.18%) were called active. This list was built around the results that the source calls inconclusive (neither active nor inactive); the mix of calls is not that of the screen. Calls come from the whole dose curve; as a rule, active = well fitted inhibition curve with a large enough effect; inconclusive = small, poorly fitted or top-dose-only effect; inactive = no such curve, though single readings can be large or run the other way. Potencies of inconclusive entries are left out as doubtful fits.
# Molecular target: Rap guanine nucleotide exchange factor 4 (Homo sapiens) (UniProt Q8WZA2)
# Chain of UniProt Q8WZA2 (Q8WZA2 whole entry, looked up): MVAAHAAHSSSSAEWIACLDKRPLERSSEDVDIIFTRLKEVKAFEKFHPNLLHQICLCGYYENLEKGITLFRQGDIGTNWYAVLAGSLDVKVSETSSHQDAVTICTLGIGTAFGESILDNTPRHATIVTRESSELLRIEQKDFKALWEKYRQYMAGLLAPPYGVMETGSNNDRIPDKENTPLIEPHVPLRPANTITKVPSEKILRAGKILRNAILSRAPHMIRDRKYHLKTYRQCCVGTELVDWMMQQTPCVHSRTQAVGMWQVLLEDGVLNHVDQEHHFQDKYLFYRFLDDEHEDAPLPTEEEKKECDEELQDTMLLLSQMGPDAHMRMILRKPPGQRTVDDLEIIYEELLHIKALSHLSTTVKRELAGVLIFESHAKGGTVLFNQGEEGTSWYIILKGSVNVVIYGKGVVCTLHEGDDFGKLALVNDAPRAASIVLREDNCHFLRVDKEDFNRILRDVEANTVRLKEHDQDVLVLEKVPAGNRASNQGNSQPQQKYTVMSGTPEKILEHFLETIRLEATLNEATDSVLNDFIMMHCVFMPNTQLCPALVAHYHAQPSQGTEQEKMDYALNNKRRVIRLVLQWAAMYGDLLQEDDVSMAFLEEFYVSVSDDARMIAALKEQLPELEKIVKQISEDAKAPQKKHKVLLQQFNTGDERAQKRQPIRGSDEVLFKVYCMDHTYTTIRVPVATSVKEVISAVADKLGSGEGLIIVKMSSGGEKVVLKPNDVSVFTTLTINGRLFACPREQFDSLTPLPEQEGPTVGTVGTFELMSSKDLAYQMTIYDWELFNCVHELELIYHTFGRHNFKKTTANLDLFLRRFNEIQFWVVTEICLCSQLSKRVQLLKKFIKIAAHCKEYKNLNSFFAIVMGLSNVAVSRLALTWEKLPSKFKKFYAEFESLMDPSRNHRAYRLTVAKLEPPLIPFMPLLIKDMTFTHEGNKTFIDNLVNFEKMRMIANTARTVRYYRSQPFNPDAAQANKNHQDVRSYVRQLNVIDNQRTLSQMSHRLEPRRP
# Test: qHTS for Antagonist of cAMP-regulated guanine nucleotide exchange factor 2 (EPAC2): primary screen; note: nearly all actives have a fitted effect of over 45% in size
# Conditions: EPAC2 GEF exchange of Rap1B-BODIPY-GDP, fluorescence; activity, negative = inhibition: at 114 µM (top of the series) unless noted
# % is set by controls: 0 for no effect and ±100 for the full control effect; potency is the fitted concentration of half-maximal effect; tags give direction and shape of the fitted curve.
Structure (SMILES),Potency,"activity, negative = inhibition"
C[C@@H]1CC=C[C@H]2[C@H]1C(=O)N(Cc1ccccc1)[C@H]2c1ccc2ccccc2c1,"inconclusive [inhibitor, full curve, poor fit]",–
COCCN=c1scc(-c2ccco2)n1/N=C/c1ccc(O)c(O)c1O,–,inactive: 12%
CCCN(CCC)S(=O)(=O)c1ccc(Cl)c(OC)c1,"inconclusive [inhibitor, partial curve]",–
NC(Cc1ccccc1)c1csc(NC(=O)Nc2ccccc2Oc2ccccc2)n1 (stereo not given),–,inactive: -5.47%
COc1ccc(C[C@H]2CN3C(=NC[C@@H]3C(C)C)N2C[C@H](C)NC(=O)c2ccc(C)c(Br)c2)cc1,–,inactive: 4.72%
CC(=O)Nc1ccc(CN2CCCC(CO)(Cc3cccc(Cl)c3)C2)cc1 (stereo not given),"inconclusive [inhibitor, single point]",–
Cc1cc(C)n(CCCN2CCC(C(=O)Nc3cccc(-c4cccc(F)c4)c3)CC2)n1,–,inactive: 1.51%
CC(=O)N1N=C(c2cccc([N+](=O)[O-])c2)OC1(C)c1cccs1 (stereo not given),"inconclusive [inhibitor, partial curve]",–
CCCCc1nc(C(N)=O)c2[nH]c(=O)n(-c3ccc(OCC)cc3)c2n1,–,inactive: -3.4%
CC(=O)c1sc(NC(=O)c2cccc3ccccc23)nc1C,"inconclusive [inhibitor, single point]",–
COc1cc(/C=C/C(=O)OCC(=O)NNC(=O)c2cc(Cl)ccc2OC)ccc1O,–,inactive: 3.26%
Cc1cccc(C(=O)NNS(=O)(=O)c2ccc(F)cc2)c1O,"inconclusive [inhibitor, partial curve]",–
COc1ccc(-c2ccccc2C2=CC(=O)CC(C)(C)C2=O)cc1,"inconclusive [inhibitor, full curve]",–
O=c1cc(N2CCCCC2)c(-c2ccccc2)nn1Cc1ccccc1,"inconclusive [inhibitor, partial curve]",–
Cc1cc(/C=C2\NC(=O)NC2=O)c(C)n1-c1ccc(N2CCOCC2)cc1,–,inactive: 2.53%
CCOC(=O)c1cccc(-c2c(-c3ccccc3)ncc3cc(OC)c(OC)cc23)c1,"inconclusive [inhibitor, partial curve]",–
CCOC(=O)C1=CCN(S(=O)(=O)c2ccc(Br)cc2)C1c1cccc(C)c1 (stereo not given),–,inactive: -21.5%
CCOC(=O)c1c(NC(=O)CNC2CCCCC2)sc(C)c1C,"inconclusive [inhibitor, partial curve]",–
CCCn1c(N)c(C(=O)CSc2nnc(Cc3ccccc3)o2)c(=O)n(C)c1=O,–,inactive: 2.01%
COc1ccc(O)c(-c2[nH]ncc2C(=O)c2cccc(C)c2)c1,–,inactive: 7.27%
